# Assay results: PubChem BioAssay (NCATS)
# The shares of active, inactive and inconclusive entries below differ from those in the screen. No potency is given beside an inconclusive call; the fits are too rough. Active and inactive are the calls of the source. Calls follow the shape of the dose curve; as a rule, active = well fitted inhibition curve with a large enough effect; inconclusive = small, poorly fitted or top-dose-only effect; inactive = no such curve, though single readings can be large or run the other way.
# Test: NS1 protein of Zika virus - qHTS assay to identify small molecule inhibitors in human HEK 293 cells (AID 1347053); also: nearly all actives have a fitted effect of over 55% in size
# Conditions: HEK293 ZIKV MR766 infection, NS1 TR-FRET, 24 h; series mostly up to 46.1 µM
# Method in brief: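 HEK 293 cells, seeded 20 h at 37 C, were pretreated with compound 1 h, then infected with ZIKV MR766 (MOI = 0.5) for 24 h. NS1 was read by TR-FRET with two anti-NS1 antibodies, normalized to uninfected and infected wells.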
# Potency is read from the fitted curve at half-maximal effect; tags tell the direction and shape of the fitted curve.
row,Compound,Potency
1,O=C1NC(=O)C(c2cnc3ccccn23)=C1c1cn2c3c(cccc13)CN(C(=O)N1CCOCC1)CC2,active: 0.59 µM
2,CC(C)c1cnn2c(NCc3ccccc3)cc(N[C@@H](CO)[C@H](O)CO)nc12,active: 0.526 µM
3,CNc1nc(-c2ccc3c(N)n[nH]c3c2)cc(N2C[C@@H](C(=O)NC3CCCCC3)CC[C@@H]2C)n1,"inconclusive [inhibitor, partial curve, poor fit]"
4,CC(=CC(=O)Nc1ccccc1C(=O)O)c1ccc2ccccc2c1,active: 14.8 µM
5,CC(C)(O)Cn1c(NC(=O)c2ccc(-c3cn[nH]c3)s2)nc2cc(CN3CCOCC3)ccc21,active: 5.26 µM
6,O=C(CCCN1CCN(c2ccc(F)cc2)CC1)NC1c2ccccc2CSc2ccccc21 (centres undefined),inactive
7,CCOC(=O)C1=C(C)NC2=C(C(=O)CC(C)(C)C2)C1c1ccc(-c2ccccc2)cc1 (centres undefined),active: 10.5 µM
8,NC(=O)c1ncn([C@@H]2O[C@H](CO)[C@@H](O)[C@@H]2O)n1,"inconclusive [inhibitor, single point]"
9,CNC(=O)c1ccccc1Nc1nc(Nc2ccc(N3CCOCC3)cc2OC)ncc1Cl,"inconclusive [inhibitor, single point]"
10,NC(=O)NO,"inconclusive [inhibitor, single point]"
11,CCOC(=O)N1CCN([N+]([O-])=NOc2ccc([N+](=O)[O-])cc2C#N)CC1,active: 2.96 µM
12,CCC(C=C[C@@H]1OC(=O)C=C[C@H]1C)=C[C@H](C)CC=CC(C)=C[C@@H](C)C(=O)[C@@H](C)[C@H](O)[C@@H](C)CC(C)=CC(=O)O,active: 0.124 µM
13,O=C1NC(=O)C(=Cc2ccc3nccc(-c4ccncc4)c3c2)S1,active: 0.743 µM
14,CO[C@@H]1[C@@H](O)[C@H](O)[C@@H](n2c3c(Cl)cccc3c3c4c(c5c6cccc(Cl)c6[nH]c5c32)C(=O)NC4=O)O[C@@H]1CO,active: 0.118 µM
15,O=C(O)Cn1nnc(-c2cc(N3CCC(Oc4cc(F)ccc4Br)CC3)no2)n1,"inconclusive [inhibitor, full curve]"
16,c1cc(CN2CCCNCCNCCCNCC2)ccc1CN1CCCNCCNCCCNCC1,"inconclusive [inhibitor, single point]"
17,CC(C)(O)CC(=O)NCCn1ccc2ncnc(Nc3ccc(Oc4cccc(C(F)(F)F)c4)c(Cl)c3)c21,"inconclusive [inhibitor, single point]"
18,Oc1cc(-c2nc(-c3ccccc3)[nH]c2-c2ccncc2)ccc1Cl,active: 37.2 µM
19,O=C(Nc1cccc(C(F)(F)F)c1)Nc1cc(S(=O)(=O)NC2CC2)ccc1-c1ccsc1,"inconclusive [inhibitor, single point]"
